AUC and IC50 data for 66 cell lines are collected here from the supplement of paper PMC4967469.

A lower IC50 marks a more sensitive line; a limit (>, <) means that the fit lies beyond the doses tested. The AUC spans the tested range (256-fold, ending at the top dose) of the same fit: 1 means no effect, lower means more sensitive. The top dose, if marked as inferred, was calculated from the reported fits. A value given as a limit tells only on which side of the number the result lay.

Compound in this assay: CCn1cc(-c2ccnc3[nH]c(-c4cccc(CN(C)C)c4)cc23)c(-c2ccc(NC(=O)N(C)C)cc2)n1 [GSK1070916]
Kind of assay: Viability of human cancer cell lines after 72 h of drug (GDSC screen). The settings on record: top dose inferred. The method, then: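 Human cancer cell lines in 384-well plates, medium with 10% serum, drug for 72 h over a 256-fold dose range (nine 2-fold or five 4-fold steps up to the top dose). Adherent lines were fixed and stained with the nucleic acid dye Syto60, suspension lines read with resazurin; signal relative to control wells, capped at 0 and 100%. One two-parameter sigmoid per drug and line, fitted in a mixed model over all curves with the slope shared within a line.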
Consider Hey (ovary, adherent, top dose 2.56 µM), for which the AUC came out at 0.928 and the half-inhibitory concentration (IC50) (commonly the concentration needed to halve the response being measured) was greater than 2560 nM.

On to “Hs633T (fibrosarcoma, adherent, top dose 2.56 µM)”, for which the AUC was 0.969 and the IC50 is greater than 2560 nM.

Consider “Hs683 (glioma, adherent, top dose 2.56 µM)”, for which the AUC came out at 0.9 and the IC50 was greater than 2560 nM.

In the case of “Hs746T (stomach, adherent, top dose 2.56 µM)”, the AUC stood at 0.915 and the IC50 is greater than 2560 nM.

Consider “Hs766T (pancreas, adherent, top dose 2.56 µM)”, for which the AUC stood at 0.984 and the concentration for half-maximal inhibition (IC50) is greater than 2560 nM.

For “Hs939-T (melanoma, adherent, top dose 2.56 µM)”, the AUC was determined as 0.986 and the IC50 is greater than 2560 nM.

In the case of “Hs940-T (melanoma, adherent, top dose 2.56 µM)”, the AUC worked out at 0.964 and the IC50 is greater than 2560 nM.

Regarding “Hs-445 (Hodgkin lymphoma, suspension, top dose 2.56 µM)”, the AUC came out at 0.856 and the concentration for half-maximal inhibition (IC50) is 1820 nM.

Take “Hs-578-T (breast, adherent, top dose 2.56 µM)”: the AUC turned out to be 0.987 and the half-maximal inhibitory concentration (IC50) is greater than 2560 nM.

For “HuCCT1 (biliary tract, adherent, top dose 2.56 µM)”, the AUC worked out at 0.94 and the IC50 was greater than 2560 nM.

Regarding “HuH-7 (liver, adherent, top dose 2.56 µM)”, the AUC turned out to be 0.98 and the IC50 is greater than 2560 nM.

On to “HuO9 (osteosarcoma, adherent, top dose 2.56 µM)”, for which the AUC worked out at 0.932 and the IC50 was greater than 2560 nM.

For the cell line “HuO-3N1 (osteosarcoma, adherent, top dose 2.56 µM)”, the AUC came to 0.955 and the IC50 is greater than 2560 nM.

“HuP-T3 (pancreas, adherent, top dose 2.56 µM)”: the AUC was 0.922 and the 50% inhibitory concentration (IC50) was greater than 2560 nM.

Take “HuP-T4 (pancreas, adherent, top dose 2.56 µM)”: the AUC amounted to 0.877 and the IC50 is greater than 2560 nM.

With “IA-LM (large cell lung carcinoma, adherent, top dose 2.56 µM)”, the AUC came out at 0.969 and the IC50 is greater than 2560 nM.

Take “IGR-1 (melanoma, adherent, top dose 2.56 µM)”: the AUC amounted to 0.903 and the IC50 is greater than 2560 nM.

Regarding “IGR-37 (melanoma, adherent, top dose 2.56 µM)”, the AUC was 0.986 and the half-maximal inhibitory concentration (IC50) is greater than 2560 nM.

Consider “IHH-4 (thyroid, semi-adherent, top dose 2.56 µM)”, for which the AUC was 0.96 and the IC50 is greater than 2560 nM.

For “IM-95 (stomach, adherent, top dose 2.56 µM)”, the AUC came out at 0.876 and the IC50 is greater than 2560 nM.

For “IMR-5 (neuroblastoma, adherent, top dose 2.56 µM)”, the AUC amounted to 0.092 and the IC50 was less than 10 nM.

Turning to “IPC-298 (melanoma, adherent, top dose 2.56 µM)”, the AUC amounted to 0.972 and the half-inhibitory concentration (IC50) was greater than 2560 nM.

As to “IST-MEL1 (melanoma, adherent, top dose 2.56 µM)”, the AUC was determined as 0.953 and the IC50 was greater than 2560 nM.

On to “IST-MES1 (mesothelioma, adherent, top dose 2.56 µM)”, for which the AUC is 0.974 and the 50% inhibitory concentration (IC50) is greater than 2560 nM.

For “IST-SL1 (small cell lung carcinoma, semi-adherent, top dose 2.56 µM)”, the AUC turned out to be 0.172 and the IC50 amounted to 15.5 nM.

Regarding “IST-SL2 (small cell lung carcinoma, suspension, top dose 2.56 µM)”, the AUC was found to be 0.413 and the IC50 came out at 92.7 nM.

Regarding “J82 (bladder, adherent, top dose 2.56 µM)”, the AUC is 0.981 and the IC50 was greater than 2560 nM.

Regarding “JAR (urogenital system, adherent, top dose 2.56 µM)”, the AUC was determined as 0.918 and the half-maximal inhibitory concentration (IC50) is greater than 2560 nM.

On to “JEG-3 (urogenital system, adherent, top dose 2.56 µM)”, for which the AUC is 0.991 and the IC50 was greater than 2560 nM.

As to “JHH-1 (liver, adherent, top dose 2.56 µM)”, the AUC came out at 0.981 and the IC50 was greater than 2560 nM.

Turning to “JHH-2 (liver, adherent, top dose 2.56 µM)”, the AUC was determined as 0.96 and the IC50 is greater than 2560 nM.

In the case of “JHH-4 (liver, adherent, top dose 2.56 µM)”, the AUC stood at 0.975 and the IC50 was greater than 2560 nM.

Consider “JHH-6 (liver, adherent, top dose 2.56 µM)”, for which the AUC worked out at 0.982 and the 50% inhibitory concentration (IC50) was greater than 2560 nM.

In the case of “JHH-7 (liver, adherent, top dose 2.56 µM)”, the AUC was determined as 0.978 and the IC50 is greater than 2560 nM.

“JHOS-2 (ovary, adherent, top dose 2.56 µM)”: the AUC turned out to be 0.981 and the half-maximal inhibitory concentration (IC50) was greater than 2560 nM.

As to “JHOS-3 (ovary, adherent, top dose 2.56 µM)”, the AUC came out at 0.957 and the IC50 was greater than 2560 nM.

As for “JHU-022 (head and neck, adherent, top dose 2.56 µM)”, the AUC is 0.922 and the IC50 is greater than 2560 nM.

Consider “JIMT-1 (breast, adherent, top dose 2.56 µM)”, for which the AUC stood at 0.964 and the half-inhibitory concentration (IC50) is greater than 2560 nM.

For “JJN-3 (haematopoietic neoplasm, suspension, top dose 2.56 µM)”, the AUC stood at 0.883 and the 50% inhibitory concentration (IC50) was 1890 nM.

Turning to “JM1 (B-cell lymphoma, suspension, top dose 2.56 µM)”, the AUC amounted to 0.25 and the concentration for half-maximal inhibition (IC50) amounted to 34.8 nM.

In the case of “JURL-MK1 (chronic myeloid leukaemia, suspension, top dose 2.56 µM)”, the AUC amounted to 0.819 and the IC50 was found to be 1450 nM.

In the case of “JVM-2 (lymphoid neoplasm, suspension, top dose 2.56 µM)”, the AUC worked out at 0.908 and the IC50 is greater than 2560 nM.

On to “JVM-3 (lymphoid neoplasm, suspension, top dose 2.56 µM)”, for which the AUC worked out at 0.987 and the IC50 was greater than 2560 nM.

On to “JiyoyeP-2003 (Burkitt lymphoma, suspension, top dose 2.56 µM)”, for which the AUC was 0.989 and the half-maximal inhibitory concentration (IC50) was greater than 2560 nM.

“K2 (melanoma, adherent, top dose 2.56 µM)”: the AUC was determined as 0.973 and the IC50 was greater than 2560 nM.

Turning to “K5 (thyroid, adherent, top dose 2.56 µM)”, the AUC stood at 0.976 and the IC50 is greater than 2560 nM.

“KALS-1 (glioma, adherent, top dose 2.56 µM)”: the AUC is 0.92 and the IC50 was greater than 2560 nM.

“KARPAS-45 (lymphoblastic leukaemia, suspension, top dose 2.56 µM)”: the AUC was determined as 0.079 and the half-inhibitory concentration (IC50) is less than 10 nM.

As to “KARPAS-299 (anaplastic large cell lymphoma, suspension, top dose 2.56 µM)”, the AUC worked out at 0.988 and the IC50 is greater than 2560 nM.

For “KARPAS-422 (B-cell lymphoma, suspension, top dose 2.56 µM)”, the AUC is 0.924 and the 50% inhibitory concentration (IC50) was greater than 2560 nM.

As to “KARPAS-620 (haematopoietic neoplasm, suspension, top dose 2.56 µM)”, the AUC came out at 0.46 and the half-maximal inhibitory concentration (IC50) came to 127 nM.

As for “KASUMI-1 (acute myeloid leukaemia, suspension, top dose 2.56 µM)”, the AUC amounted to 0.216 and the IC50 was found to be 23.4 nM.

As for “KCL-22 (chronic myeloid leukaemia, suspension, top dose 2.56 µM)”, the AUC worked out at 0.881 and the IC50 came to 1940 nM.

In the case of “KE-37 (lymphoblastic leukaemia, suspension, top dose 2.56 µM)”, the AUC was 0.028 and the IC50 is less than 10 nM.

Turning to “KELLY (neuroblastoma, adherent, top dose 2.56 µM)”, the AUC came out at 0.962 and the IC50 is greater than 2560 nM.

For “KG-1 (acute myeloid leukaemia, suspension, top dose 2.56 µM)”, the AUC is 0.846 and the IC50 came out at 1580 nM.

Turning to KGN (ovary, adherent, top dose 2.56 µM), the AUC stood at 0.679 and the concentration for half-maximal inhibition (IC50) was 565 nM.

Consider “KINGS-1 (glioma, adherent, top dose 2.56 µM)”, for which the AUC was 0.965 and the half-maximal inhibitory concentration (IC50) was greater than 2560 nM.

For the cell line “KLE (endometrium, adherent, top dose 2.56 µM)”, the AUC came to 0.934 and the concentration for half-maximal inhibition (IC50) is greater than 2560 nM.

As for “KM12 (large intestine, adherent, top dose 2.56 µM)”, the AUC amounted to 0.915 and the half-inhibitory concentration (IC50) is greater than 2560 nM.

In the case of “KM-H2 (Hodgkin lymphoma, suspension, top dose 2.56 µM)”, the AUC was found to be 0.916 and the 50% inhibitory concentration (IC50) is greater than 2560 nM.

Turning to “KMH-2 (thyroid, adherent, top dose 2.56 µM)”, the AUC was 0.917 and the half-maximal inhibitory concentration (IC50) was greater than 2560 nM.

Turning to “KMOE-2 (acute myeloid leukaemia, suspension, top dose 2.56 µM)”, the AUC stood at 0.851 and the concentration for half-maximal inhibition (IC50) is 1650 nM.

Turning to “KMRC-1 (kidney, adherent, top dose 2.56 µM)”, the AUC was found to be 0.987 and the IC50 was greater than 2560 nM.

On to “KMRC-20 (kidney, adherent, top dose 2.56 µM)”, for which the AUC is 0.988 and the IC50 is greater than 2560 nM.

As to “KMS-11 (myeloma, suspension, top dose 2.56 µM)”, the AUC is 0.95 and the IC50 is greater than 2560 nM.
